Experimental data published in ChEMBL document CHEMBL4038337, “Discovery of an Orally Bioavailable, Brain-Penetrating, in Vivo Active Phosphodiesterase 2A Inhibitor Lead Series for the Treatment of Cognitive Disorders” (J Med Chem, 2017).
pIC50: −log10 of the molar value.

Columns and labels:
[1] = target: 3',5'-cyclic-AMP phosphodiesterase 4D (Homo sapiens, UniProt Q08499)
[2] = in vivo; details: ICR, mouse, po, 1 mg/kg
[3] = in vivo; details: Crl:CD (SD) IGS, rat, po, 1 mg/kg
[4] = target: cGMP-inhibited 3',5'-cyclic phosphodiesterase 3A (Homo sapiens, UniProt Q14432)
[5] = target: cGMP-specific 3',5'-cyclic phosphodiesterase (Homo sapiens, UniProt O76074)
[6] = target: Rod cGMP-specific 3',5'-cyclic phosphodiesterase alpha/beta (Homo sapiens, UniProt P16499+P35913)
[7] = target: High affinity cGMP-specific 3',5'-cyclic phosphodiesterase 9A (Homo sapiens, UniProt O76083)
[8] = in vivo; details: ICR, mouse, brain, po, 1 mg/kg
[9] = in vivo; details: ICR, mouse, po, 1 mg/kg; remark: listed apart in the source
[10] = in vivo; details: Crl:CD (SD) IGS, rat, po, 1 mg/kg; remark: listed apart in the source
[11] = in vivo; details: Crl:CD (SD) IGS, rat, brain, po, 1 mg/kg
[12] = in vivo; details: Crl:CD (SD) IGS, rat, po, 1 mg/kg; remark: listed apart in the source
[13] = in vivo; details: Crl:CD (SD) IGS, rat, po, 1 mg/kg; remark: listed apart in the source
[14] = in vivo; details: ICR, mouse, iv, 0.1 mg/kg
[15] = in vivo; details: ICR, mouse, iv, 0.1 mg/kg; remark: listed apart in the source
[16] = in vivo; details: Crl:CD (SD) IGS, rat, iv, 0.1 mg/kg
[17] = in vivo; details: ICR, mouse, po, 1 mg/kg; remark: listed apart in the source
[18] = target: 3',5'-cyclic-AMP phosphodiesterase 7B (Homo sapiens, UniProt Q9NP56)
[19] = target: High affinity cAMP-specific and IBMX-insensitive 3',5'-cyclic phosphodiesterase 8A (Homo sapiens, UniProt O60658)
[20] = physchem; details: octanol/water, pH 7.4
[21] = target: Dual 3',5'-cyclic-AMP and -GMP phosphodiesterase 11A (Homo sapiens, UniProt Q9HCR9)
[22] = target: cAMP and cAMP-inhibited cGMP 3',5'-cyclic phosphodiesterase 10A (Homo sapiens, UniProt Q9Y233); assay: biochemical
[23] = in vivo; details: ICR, mouse, po, 1 mg/kg; remark: listed apart in the source
[24] = target: Dual specificity calcium/calmodulin-dependent 3',5'-cyclic nucleotide phosphodiesterase 1A (Homo sapiens, UniProt P54750)
[25] = in vivo; details: Crl:CD (SD) IGS, rat, iv, 0.1 mg/kg; remark: listed apart in the source

Chain of High affinity cGMP-specific 3',5'-cyclic phosphodiesterase 9A (O76083 whole entry): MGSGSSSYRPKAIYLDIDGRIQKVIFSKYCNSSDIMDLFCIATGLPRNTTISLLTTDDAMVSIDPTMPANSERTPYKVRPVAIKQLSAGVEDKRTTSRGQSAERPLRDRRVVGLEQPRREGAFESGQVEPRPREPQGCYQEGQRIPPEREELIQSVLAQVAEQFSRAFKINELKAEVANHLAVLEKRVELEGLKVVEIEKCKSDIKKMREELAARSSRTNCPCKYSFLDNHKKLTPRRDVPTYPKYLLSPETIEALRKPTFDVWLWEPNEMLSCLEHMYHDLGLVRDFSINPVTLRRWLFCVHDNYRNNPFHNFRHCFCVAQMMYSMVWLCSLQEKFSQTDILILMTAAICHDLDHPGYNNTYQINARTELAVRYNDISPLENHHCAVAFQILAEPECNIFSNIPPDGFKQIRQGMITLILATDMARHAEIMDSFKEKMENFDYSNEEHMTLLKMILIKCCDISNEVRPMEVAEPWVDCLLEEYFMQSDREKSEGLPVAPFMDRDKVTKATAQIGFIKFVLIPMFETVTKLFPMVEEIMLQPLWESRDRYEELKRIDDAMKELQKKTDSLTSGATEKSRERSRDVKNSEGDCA
Chain of High affinity cAMP-specific and IBMX-insensitive 3',5'-cyclic phosphodiesterase 8A (O60658 whole entry): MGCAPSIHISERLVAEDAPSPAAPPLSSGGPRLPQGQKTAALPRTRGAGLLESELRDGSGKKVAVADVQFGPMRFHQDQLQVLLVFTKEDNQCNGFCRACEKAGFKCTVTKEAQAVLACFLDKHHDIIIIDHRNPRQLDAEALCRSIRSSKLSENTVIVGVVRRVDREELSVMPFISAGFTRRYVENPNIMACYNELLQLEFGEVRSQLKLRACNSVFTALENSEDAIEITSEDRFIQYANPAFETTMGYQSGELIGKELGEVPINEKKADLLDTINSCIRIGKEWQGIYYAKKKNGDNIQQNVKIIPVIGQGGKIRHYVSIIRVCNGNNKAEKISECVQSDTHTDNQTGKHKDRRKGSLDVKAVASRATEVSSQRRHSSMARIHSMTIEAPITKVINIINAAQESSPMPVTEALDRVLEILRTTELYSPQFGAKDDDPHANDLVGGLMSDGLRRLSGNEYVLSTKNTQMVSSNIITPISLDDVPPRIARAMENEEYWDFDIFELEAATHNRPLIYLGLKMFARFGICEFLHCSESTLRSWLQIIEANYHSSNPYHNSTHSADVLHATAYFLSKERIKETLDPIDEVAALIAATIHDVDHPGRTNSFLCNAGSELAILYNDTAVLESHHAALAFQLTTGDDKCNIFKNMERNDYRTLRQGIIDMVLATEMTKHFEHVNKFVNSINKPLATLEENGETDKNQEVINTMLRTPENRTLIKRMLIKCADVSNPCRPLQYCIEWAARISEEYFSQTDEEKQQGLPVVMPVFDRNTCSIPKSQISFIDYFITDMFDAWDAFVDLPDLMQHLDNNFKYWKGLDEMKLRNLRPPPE
Chain of Dual specificity calcium/calmodulin-dependent 3',5'-cyclic nucleotide phosphodiesterase 1A (P54750 whole entry): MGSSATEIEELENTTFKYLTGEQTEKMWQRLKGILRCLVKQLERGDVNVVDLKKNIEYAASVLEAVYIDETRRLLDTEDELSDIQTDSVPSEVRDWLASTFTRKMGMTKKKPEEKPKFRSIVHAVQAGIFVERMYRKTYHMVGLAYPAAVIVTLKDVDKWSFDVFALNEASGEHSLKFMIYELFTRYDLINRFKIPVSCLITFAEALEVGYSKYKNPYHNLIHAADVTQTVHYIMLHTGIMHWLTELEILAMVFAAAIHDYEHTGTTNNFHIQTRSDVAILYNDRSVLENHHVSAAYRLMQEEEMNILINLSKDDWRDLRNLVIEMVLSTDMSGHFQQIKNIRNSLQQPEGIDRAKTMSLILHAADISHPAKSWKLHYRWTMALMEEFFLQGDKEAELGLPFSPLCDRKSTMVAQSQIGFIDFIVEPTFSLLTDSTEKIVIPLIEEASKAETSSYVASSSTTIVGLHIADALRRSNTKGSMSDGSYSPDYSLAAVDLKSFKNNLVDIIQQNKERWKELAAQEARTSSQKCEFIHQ
Chain of 3',5'-cyclic-AMP phosphodiesterase 7B (Q9NP56 whole entry): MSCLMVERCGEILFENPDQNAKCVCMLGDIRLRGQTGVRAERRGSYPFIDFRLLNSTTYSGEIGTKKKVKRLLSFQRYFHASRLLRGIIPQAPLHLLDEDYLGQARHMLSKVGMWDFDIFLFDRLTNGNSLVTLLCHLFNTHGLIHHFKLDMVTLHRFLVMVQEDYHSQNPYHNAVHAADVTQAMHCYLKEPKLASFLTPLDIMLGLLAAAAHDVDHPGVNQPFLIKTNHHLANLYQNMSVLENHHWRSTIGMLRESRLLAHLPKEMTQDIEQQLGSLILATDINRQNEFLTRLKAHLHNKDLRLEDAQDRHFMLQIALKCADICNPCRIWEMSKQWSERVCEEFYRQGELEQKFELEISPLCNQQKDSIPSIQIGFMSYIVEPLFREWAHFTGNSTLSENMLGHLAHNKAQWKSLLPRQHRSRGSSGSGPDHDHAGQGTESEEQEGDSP
Chain of Dual 3',5'-cyclic-AMP and -GMP phosphodiesterase 11A (Q9HCR9 whole entry): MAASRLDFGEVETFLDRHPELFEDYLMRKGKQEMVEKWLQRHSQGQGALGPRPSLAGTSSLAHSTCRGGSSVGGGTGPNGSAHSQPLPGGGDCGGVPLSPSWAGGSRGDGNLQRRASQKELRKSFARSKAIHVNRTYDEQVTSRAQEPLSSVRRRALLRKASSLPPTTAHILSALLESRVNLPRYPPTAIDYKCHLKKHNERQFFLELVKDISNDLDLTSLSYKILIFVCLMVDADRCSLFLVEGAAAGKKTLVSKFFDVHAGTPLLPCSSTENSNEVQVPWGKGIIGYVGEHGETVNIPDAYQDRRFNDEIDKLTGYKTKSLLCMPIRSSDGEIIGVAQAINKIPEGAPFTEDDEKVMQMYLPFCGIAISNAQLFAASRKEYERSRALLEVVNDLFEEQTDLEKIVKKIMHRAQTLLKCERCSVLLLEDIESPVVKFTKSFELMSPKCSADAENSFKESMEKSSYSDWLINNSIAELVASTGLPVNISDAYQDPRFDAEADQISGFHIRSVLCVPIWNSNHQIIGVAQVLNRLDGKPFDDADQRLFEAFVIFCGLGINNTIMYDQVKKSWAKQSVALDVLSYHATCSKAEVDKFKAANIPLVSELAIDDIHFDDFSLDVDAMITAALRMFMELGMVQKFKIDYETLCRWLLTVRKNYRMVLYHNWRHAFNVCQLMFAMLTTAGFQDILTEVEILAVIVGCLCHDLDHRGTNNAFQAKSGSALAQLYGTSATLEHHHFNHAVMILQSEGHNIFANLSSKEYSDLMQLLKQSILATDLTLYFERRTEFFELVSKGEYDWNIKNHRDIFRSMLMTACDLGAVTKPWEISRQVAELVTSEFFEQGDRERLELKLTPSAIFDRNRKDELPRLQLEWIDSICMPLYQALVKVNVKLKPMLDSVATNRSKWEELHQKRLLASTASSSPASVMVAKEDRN
Chain of cGMP-inhibited 3',5'-cyclic phosphodiesterase 3A (Q14432 whole entry): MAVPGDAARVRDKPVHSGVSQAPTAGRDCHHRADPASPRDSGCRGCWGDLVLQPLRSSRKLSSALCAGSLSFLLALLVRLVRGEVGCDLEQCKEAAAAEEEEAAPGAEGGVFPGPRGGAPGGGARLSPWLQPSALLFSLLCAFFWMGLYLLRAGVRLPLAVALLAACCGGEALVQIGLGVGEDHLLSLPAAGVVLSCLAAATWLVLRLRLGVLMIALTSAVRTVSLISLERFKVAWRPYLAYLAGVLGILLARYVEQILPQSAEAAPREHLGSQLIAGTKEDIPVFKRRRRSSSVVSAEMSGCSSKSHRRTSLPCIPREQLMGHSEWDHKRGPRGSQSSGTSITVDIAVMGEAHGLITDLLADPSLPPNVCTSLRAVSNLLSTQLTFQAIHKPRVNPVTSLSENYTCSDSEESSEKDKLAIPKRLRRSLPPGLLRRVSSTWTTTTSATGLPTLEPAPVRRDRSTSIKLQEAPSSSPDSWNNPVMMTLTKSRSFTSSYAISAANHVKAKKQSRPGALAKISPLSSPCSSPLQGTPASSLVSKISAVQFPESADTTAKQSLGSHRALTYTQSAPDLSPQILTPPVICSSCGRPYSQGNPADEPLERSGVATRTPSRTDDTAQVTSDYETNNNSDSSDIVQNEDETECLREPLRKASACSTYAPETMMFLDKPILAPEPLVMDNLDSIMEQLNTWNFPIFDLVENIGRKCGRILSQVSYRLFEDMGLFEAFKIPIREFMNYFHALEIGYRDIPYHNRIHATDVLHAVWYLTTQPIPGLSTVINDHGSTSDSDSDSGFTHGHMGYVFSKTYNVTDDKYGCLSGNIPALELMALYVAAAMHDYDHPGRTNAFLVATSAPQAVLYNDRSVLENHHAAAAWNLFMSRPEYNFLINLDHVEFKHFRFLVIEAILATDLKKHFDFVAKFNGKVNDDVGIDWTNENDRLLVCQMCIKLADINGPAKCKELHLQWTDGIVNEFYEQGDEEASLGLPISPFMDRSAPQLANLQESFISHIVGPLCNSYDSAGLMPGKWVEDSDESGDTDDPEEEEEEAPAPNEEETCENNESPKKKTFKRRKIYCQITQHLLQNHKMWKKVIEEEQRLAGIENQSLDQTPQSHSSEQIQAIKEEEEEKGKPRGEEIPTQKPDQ

In the case of `CC[C@@H](NC(=O)c1cnn2cc(C)cnc12)c1ccc(OC(F)(F)F)cc1`, the pIC50 [1] was < 5.00, the Tmax at 8 h [2] was 0.7 h and the bioavailability at 8 h [3] was 15.4%. For the same molecule, the pIC50 [4] was 5.38, the pIC50 [5] was < 5.00 and the pIC50 [6] was < 5.00. For the same molecule, the pIC50 [7] was < 5.00, the Kp at 1 h [8] was 2.9 and the AUC(0-t) at 8 h [9] was 133 ng·h/mL. For the same molecule, the Cmax at 8 h [10] was 15.9 ng/mL, the Kp at 2 h [11] was 2.6 and the Tmax at 8 h [12] was 1.7 h. It also gave an AUC(0-t) at 8 h [13] of 58.7 ng·h/mL, a clearance at 8 h [14] of 43.2 mL/min/kg and a Vd at 8 h [15] of 4.36 L/kg. For the same molecule, the clearance at 8 h [16] was 43.9 mL/min/kg, the bioavailability at 8 h [17] was 33.9% and the pIC50 [18] was < 5.00. For the same molecule, the pIC50 [19] was < 5.00, the chromatographic logD [20] was 3.46 and the pIC50 [21] was < 5.00. The pIC50 [22] was 5.13, the Cmax at 8 h [23] was 44.8 ng/mL and the pIC50 [24] was < 5.00. It also gave a Vd at 8 h [25] of 3.95 L/kg.
